Substitutions are numbered along the chain they refer to; changes in the protein carry UniProt numbers. Some of the results follow.

We go through 31 molecules from paper PMC9911399, “Two distinct binding modes provide the RNA-binding protein RbFox with extraordinary sequence specificity”.

In test [1] the target is T1, RBFOX1 RRM (Homo sapiens, UniProt Q9NWB1 109-208).
T1 sequence: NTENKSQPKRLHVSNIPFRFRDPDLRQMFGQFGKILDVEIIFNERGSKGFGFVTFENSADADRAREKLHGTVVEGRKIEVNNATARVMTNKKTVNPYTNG
Briefly: EMSA; HiTS-Eq, 1 nM pool, 10 min; buffer printed only for the single-RNA assays: 10 mM Tris pH 7.5, 150 mM NaCl, 3.4 mM EDTA, 0.001% NP-40, 30 C. Conditions: tags: His6 N-terminal (pET28a); label: 5' 32P. Summed up: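 Purified RbFox RRM, wild type or mutant, was incubated for 10 min in 50 µL with 1 nM of a 5′-radiolabelled RNA pool carrying 7 randomized nucleotides, whose flanks were annealed to DNA oligonucleotides, over a series of increasing protein concentrations. Unbound RNA was resolved on 8% native PAGE, cut out, reverse-transcribed, barcoded by PCR and sequenced on an Illumina HiSeq 2500. Relative association constants were derived from changes in read counts for each RNA species versus the control reaction and normalised to the cognate motif.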

In test [2] the target is T1, RBFOX1 RRM. Briefly: competition; 10 mM Tris pH 7.5, 150 mM NaCl, 3.4 mM EDTA, 0.001% NP-40, 30 C. As to conditions: tags: His6 N-terminal (pET28a).

B1: CACGCCA (DNA:RNA)
RNA: GGGAGACCGGAAUUCAGAUUGUCCCACGCCAUUAAAUCCCGUCGUAGCCACCA
DNA 1: CAATCTGAATTCCGGTCTCCC
DNA 2: TGGTGGCTACGACGGGATT
Regarding B1, the binding signal with RBFOX1 RRM [1] is 0.00204 KA relative to UGCAUGU.

B2: UAGGGAC (DNA:RNA)
RNA: B1 RNA with C25U, C27G, C29G, C30A, A31C
DNA 1: CAATCTGAATTCCGGTCTCCC
DNA 2: TGGTGGCTACGACGGGATT
Take B2: the binding signal with RBFOX1 RRM [1] is 0.00353 KA relative to UGCAUGU. As for UACAUGU (ssRNA), the binding signal with RBFOX1 RRM [2] was 341 nM.

B3: AGACCCU (DNA:RNA)
RNA: B1 RNA with C25A, A26G, C27A, G28C, A31U
DNA 1: CAATCTGAATTCCGGTCTCCC
DNA 2: TGGTGGCTACGACGGGATT
Regarding B3, the binding signal with RBFOX1 RRM [1] was 0.00196 KA relative to UGCAUGU.

B4: CAAGACC (DNA:RNA)
RNA: B1 RNA with C27A, C29A, A31C
DNA 1: CAATCTGAATTCCGGTCTCCC
DNA 2: TGGTGGCTACGACGGGATT
Regarding B4, the binding signal with RBFOX1 RRM [1] is 0.00212 KA relative to UGCAUGU.

B5: CACUCCA (DNA:RNA)
RNA: B1 RNA with G28U
DNA 1: CAATCTGAATTCCGGTCTCCC
DNA 2: TGGTGGCTACGACGGGATT
Regarding B5, the binding signal in the test with RBFOX1 RRM [1] is 0.0014 KA relative to UGCAUGU.

B6: UCCACUU (DNA:RNA)
RNA: B1 RNA with C25U, A26C, G28A, C30U, A31U
DNA 1: CAATCTGAATTCCGGTCTCCC
DNA 2: TGGTGGCTACGACGGGATT
Take B6: in the test with RBFOX1 RRM [1], the binding signal was 0.00587 KA relative to UGCAUGU.

B7: UGUGUUG (DNA:RNA)
RNA: B1 RNA with C25U, A26G, C27U, C29U, C30U, A31G
DNA 1: CAATCTGAATTCCGGTCTCCC
DNA 2: TGGTGGCTACGACGGGATT
On to B7, for which the binding signal with RBFOX1 RRM [1] is 0.0299 KA relative to UGCAUGU.

B8: GGGCGGU (DNA:RNA)
RNA: GGGAGACCGGAAUUCAGAUUGUCCGGGCGGUUUAAAUCCCGUCGUAGCCACCA
DNA 1: CAATCTGAATTCCGGTCTCCC
DNA 2: TGGTGGCTACGACGGGATT
B8: in the test with RBFOX1 RRM [1], the binding signal is 0.0224 KA relative to UGCAUGU.

B9: ACCCAAA (DNA:RNA)
RNA: B1 RNA with C25A, A26C, G28C, C29A, C30A
DNA 1: CAATCTGAATTCCGGTCTCCC
DNA 2: TGGTGGCTACGACGGGATT
As for B9, in the test with RBFOX1 RRM [1], the binding signal was 0.000532 KA relative to UGCAUGU.

B10: CGCUUUC (DNA:RNA)
RNA: B1 RNA with A26G, G28U, C29U, C30U, A31C
DNA 1: CAATCTGAATTCCGGTCTCCC
DNA 2: TGGTGGCTACGACGGGATT
For the molecule B10, the binding signal with RBFOX1 RRM [1] is 0.0149 KA relative to UGCAUGU.

B11: GCCGGUC (DNA:RNA)
RNA: B1 RNA with C25G, A26C, C29G, C30U, A31C
DNA 1: CAATCTGAATTCCGGTCTCCC
DNA 2: TGGTGGCTACGACGGGATT
In the case of B11, the binding signal with RBFOX1 RRM [1] was 0.0157 KA relative to UGCAUGU.

B12: CAGUAGA (DNA:RNA)
RNA: B1 RNA with C27G, G28U, C29A, C30G
DNA 1: CAATCTGAATTCCGGTCTCCC
DNA 2: TGGTGGCTACGACGGGATT
With B12, the binding signal in the test with RBFOX1 RRM [1] is 0.0116 KA relative to UGCAUGU.

B13: AAGCAGC (DNA:RNA)
RNA: B8 RNA with G25A, G26A, G29A, U31C
DNA 1: CAATCTGAATTCCGGTCTCCC
DNA 2: TGGTGGCTACGACGGGATT
For the molecule B13, the binding signal with RBFOX1 RRM [1] is 0.00626 KA relative to UGCAUGU.

B14: ACCGAGC (DNA:RNA)
RNA: B1 RNA with C25A, A26C, C29A, C30G, A31C
DNA 1: CAATCTGAATTCCGGTCTCCC
DNA 2: TGGTGGCTACGACGGGATT
With B14, the binding signal in the test with RBFOX1 RRM [1] is 0.0103 KA relative to UGCAUGU.

B15: CAACAGG (DNA:RNA)
RNA: B1 RNA with C27A, G28C, C29A, C30G, A31G
DNA 1: CAATCTGAATTCCGGTCTCCC
DNA 2: TGGTGGCTACGACGGGATT
In the case of B15, the binding signal with RBFOX1 RRM [1] was 0.00656 KA relative to UGCAUGU.

B16: AUGUAUC (DNA:RNA)
RNA: B8 RNA with G25A, G26U, C28U, G29A, G30U, U31C
DNA 1: CAATCTGAATTCCGGTCTCCC
DNA 2: TGGTGGCTACGACGGGATT
With B16, in the test with RBFOX1 RRM [1], the binding signal is 0.00724 KA relative to UGCAUGU.

B17: AUAGAGU (DNA:RNA)
RNA: B8 RNA with G25A, G26U, G27A, C28G, G29A
DNA 1: CAATCTGAATTCCGGTCTCCC
DNA 2: TGGTGGCTACGACGGGATT
For B17, the binding signal with RBFOX1 RRM [1] is 0.00536 KA relative to UGCAUGU.

B18: AAAUCCG (DNA:RNA)
RNA: B1 RNA with C25A, C27A, G28U, A31G
DNA 1: CAATCTGAATTCCGGTCTCCC
DNA 2: TGGTGGCTACGACGGGATT
With B18, in the test with RBFOX1 RRM [1], the binding signal was 0.00203 KA relative to UGCAUGU.

B19: UAAUUUC (DNA:RNA)
RNA: B1 RNA with C25U, C27A, G28U, C29U, C30U, A31C
DNA 1: CAATCTGAATTCCGGTCTCCC
DNA 2: TGGTGGCTACGACGGGATT
B19: in the test with RBFOX1 RRM [1], the binding signal was 0.00912 KA relative to UGCAUGU.

B20: UCCUGCA (DNA:RNA)
RNA: B1 RNA with C25U, A26C, G28U, C29G
DNA 1: CAATCTGAATTCCGGTCTCCC
DNA 2: TGGTGGCTACGACGGGATT
In the case of B20, the binding signal with RBFOX1 RRM [1] was 0.0135 KA relative to UGCAUGU.

B21: CAAGGUC (DNA:RNA)
RNA: B1 RNA with C27A, C29G, C30U, A31C
DNA 1: CAATCTGAATTCCGGTCTCCC
DNA 2: TGGTGGCTACGACGGGATT
On to B21, for which the binding signal with RBFOX1 RRM [1] was 0.00864 KA relative to UGCAUGU.

B22: UAAGGCG (DNA:RNA)
RNA: B1 RNA with C25U, C27A, C29G, A31G
DNA 1: CAATCTGAATTCCGGTCTCCC
DNA 2: TGGTGGCTACGACGGGATT
Turning to B22, in the test with RBFOX1 RRM [1], the binding signal was 0.0143 KA relative to UGCAUGU.

B23: CUAGCUU (DNA:RNA)
RNA: B1 RNA with A26U, C27A, C30U, A31U
DNA 1: CAATCTGAATTCCGGTCTCCC
DNA 2: TGGTGGCTACGACGGGATT
As for B23, the binding signal with RBFOX1 RRM [1] is 0.00632 KA relative to UGCAUGU.

B24: CCACCUU (DNA:RNA)
RNA: B1 RNA with A26C, C27A, G28C, C30U, A31U
DNA 1: CAATCTGAATTCCGGTCTCCC
DNA 2: TGGTGGCTACGACGGGATT
On to B24, for which, in the test with RBFOX1 RRM [1], the binding signal is 0.00116 KA relative to UGCAUGU.

B25: CAAUGGC (DNA:RNA)
RNA: B1 RNA with C27A, G28U, C29G, C30G, A31C
DNA 1: CAATCTGAATTCCGGTCTCCC
DNA 2: TGGTGGCTACGACGGGATT
B25: the binding signal in the test with RBFOX1 RRM [1] was 0.00639 KA relative to UGCAUGU.

B26: ACACUGC (DNA:RNA)
RNA: B8 RNA with G25A, G26C, G27A, G29U, U31C
DNA 1: CAATCTGAATTCCGGTCTCCC
DNA 2: TGGTGGCTACGACGGGATT
In the case of B26, in the test with RBFOX1 RRM [1], the binding signal is 0.00606 KA relative to UGCAUGU.

B27: GGGGCGA (DNA:RNA)
RNA: B8 RNA with C28G, G29C, U31A
DNA 1: CAATCTGAATTCCGGTCTCCC
DNA 2: TGGTGGCTACGACGGGATT
With B27, in the test with RBFOX1 RRM [1], the binding signal is 0.0263 KA relative to UGCAUGU.

B28: AUGGGUC (DNA:RNA)
RNA: B8 RNA with G25A, G26U, C28G, G30U, U31C
DNA 1: CAATCTGAATTCCGGTCTCCC
DNA 2: TGGTGGCTACGACGGGATT
As for B28, in the test with RBFOX1 RRM [1], the binding signal is 0.0197 KA relative to UGCAUGU.

B29: CGACCUU (DNA:RNA)
RNA: B8 RNA with G25C, G27A, G29C, G30U
DNA 1: CAATCTGAATTCCGGTCTCCC
DNA 2: TGGTGGCTACGACGGGATT
For B29, the binding signal with RBFOX1 RRM [1] is 0.00679 KA relative to UGCAUGU.

B30: AACUAAG (DNA:RNA)
RNA: B1 RNA with C25A, G28U, C29A, C30A, A31G
DNA 1: CAATCTGAATTCCGGTCTCCC
DNA 2: TGGTGGCTACGACGGGATT
Regarding B30, in the test with RBFOX1 RRM [1], the binding signal was 0.00773 KA relative to UGCAUGU.
